From publication PMC12314375, “The GTPase κB-Ras is an essential subunit of the RalGAP tumor suppressor complex” (The Journal of Biological Chemistry, 2025)
Changes are numbered by the printed parent chain. No constants are given. Whether binding was seen depends on the method and setting. For some of these results: In cells and extracts the contact can be indirect. Some binding calls cover weakened binding; strength is not graded here. Blank lines part the entries; values can stand above or below the substance they belong to.

Protein sequences, listed by entry. Tags and fused reporters are not part of them. Lines headed by an entry give the natural chain unless they say otherwise; changes in a name come on top. Chains listed by the source or under a name are the forms on record and can include a tag or linker.
UniProt Q2PPJ7: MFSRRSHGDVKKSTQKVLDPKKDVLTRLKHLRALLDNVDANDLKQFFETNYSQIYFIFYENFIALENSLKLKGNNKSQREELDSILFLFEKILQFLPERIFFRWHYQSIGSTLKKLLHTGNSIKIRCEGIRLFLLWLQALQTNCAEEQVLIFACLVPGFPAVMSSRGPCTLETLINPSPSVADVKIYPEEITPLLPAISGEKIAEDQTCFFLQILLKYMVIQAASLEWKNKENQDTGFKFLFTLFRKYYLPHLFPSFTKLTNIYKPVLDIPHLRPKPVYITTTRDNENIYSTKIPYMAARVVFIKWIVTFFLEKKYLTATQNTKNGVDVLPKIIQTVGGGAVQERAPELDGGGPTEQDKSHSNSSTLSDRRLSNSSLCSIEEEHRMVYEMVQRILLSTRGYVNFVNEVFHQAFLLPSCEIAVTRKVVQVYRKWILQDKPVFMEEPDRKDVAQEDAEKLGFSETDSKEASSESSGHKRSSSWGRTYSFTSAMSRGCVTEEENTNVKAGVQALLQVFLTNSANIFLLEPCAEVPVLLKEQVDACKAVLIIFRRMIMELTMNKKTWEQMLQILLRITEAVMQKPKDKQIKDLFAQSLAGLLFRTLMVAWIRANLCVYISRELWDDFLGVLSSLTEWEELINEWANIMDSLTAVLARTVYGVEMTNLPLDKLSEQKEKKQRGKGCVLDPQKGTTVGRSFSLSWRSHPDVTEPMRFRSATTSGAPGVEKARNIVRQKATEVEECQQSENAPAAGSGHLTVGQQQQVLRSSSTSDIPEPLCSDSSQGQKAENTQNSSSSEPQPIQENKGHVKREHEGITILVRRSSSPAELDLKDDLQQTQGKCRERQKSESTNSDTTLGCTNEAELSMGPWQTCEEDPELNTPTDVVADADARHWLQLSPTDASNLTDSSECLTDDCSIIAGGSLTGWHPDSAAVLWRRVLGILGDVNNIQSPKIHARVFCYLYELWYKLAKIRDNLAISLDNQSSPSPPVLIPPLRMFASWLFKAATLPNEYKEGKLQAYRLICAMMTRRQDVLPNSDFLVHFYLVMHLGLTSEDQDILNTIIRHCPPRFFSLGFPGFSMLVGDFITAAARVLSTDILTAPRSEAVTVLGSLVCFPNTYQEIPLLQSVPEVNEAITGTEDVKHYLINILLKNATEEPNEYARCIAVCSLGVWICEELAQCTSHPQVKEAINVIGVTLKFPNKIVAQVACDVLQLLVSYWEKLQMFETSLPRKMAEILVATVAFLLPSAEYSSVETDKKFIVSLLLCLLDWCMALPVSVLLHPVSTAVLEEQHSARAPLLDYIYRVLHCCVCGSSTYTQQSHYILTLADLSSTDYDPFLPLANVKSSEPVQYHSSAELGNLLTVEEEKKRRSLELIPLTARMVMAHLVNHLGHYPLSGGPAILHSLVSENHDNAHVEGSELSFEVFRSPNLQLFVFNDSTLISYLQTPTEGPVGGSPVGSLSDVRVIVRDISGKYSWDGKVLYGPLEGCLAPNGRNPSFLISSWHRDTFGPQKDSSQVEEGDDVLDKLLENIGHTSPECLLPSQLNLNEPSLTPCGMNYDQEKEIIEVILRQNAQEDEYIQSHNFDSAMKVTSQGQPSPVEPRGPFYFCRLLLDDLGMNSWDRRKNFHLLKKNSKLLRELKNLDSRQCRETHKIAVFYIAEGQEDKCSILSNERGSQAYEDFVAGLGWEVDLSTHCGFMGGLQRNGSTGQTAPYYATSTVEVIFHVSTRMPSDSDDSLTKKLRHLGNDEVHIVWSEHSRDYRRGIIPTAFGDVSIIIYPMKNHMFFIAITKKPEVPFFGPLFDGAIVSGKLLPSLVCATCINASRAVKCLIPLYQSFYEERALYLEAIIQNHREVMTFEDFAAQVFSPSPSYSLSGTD
RGα2Δloop in the purified RGα2Δloop/RGβ complex (Q2PPJ7, form named): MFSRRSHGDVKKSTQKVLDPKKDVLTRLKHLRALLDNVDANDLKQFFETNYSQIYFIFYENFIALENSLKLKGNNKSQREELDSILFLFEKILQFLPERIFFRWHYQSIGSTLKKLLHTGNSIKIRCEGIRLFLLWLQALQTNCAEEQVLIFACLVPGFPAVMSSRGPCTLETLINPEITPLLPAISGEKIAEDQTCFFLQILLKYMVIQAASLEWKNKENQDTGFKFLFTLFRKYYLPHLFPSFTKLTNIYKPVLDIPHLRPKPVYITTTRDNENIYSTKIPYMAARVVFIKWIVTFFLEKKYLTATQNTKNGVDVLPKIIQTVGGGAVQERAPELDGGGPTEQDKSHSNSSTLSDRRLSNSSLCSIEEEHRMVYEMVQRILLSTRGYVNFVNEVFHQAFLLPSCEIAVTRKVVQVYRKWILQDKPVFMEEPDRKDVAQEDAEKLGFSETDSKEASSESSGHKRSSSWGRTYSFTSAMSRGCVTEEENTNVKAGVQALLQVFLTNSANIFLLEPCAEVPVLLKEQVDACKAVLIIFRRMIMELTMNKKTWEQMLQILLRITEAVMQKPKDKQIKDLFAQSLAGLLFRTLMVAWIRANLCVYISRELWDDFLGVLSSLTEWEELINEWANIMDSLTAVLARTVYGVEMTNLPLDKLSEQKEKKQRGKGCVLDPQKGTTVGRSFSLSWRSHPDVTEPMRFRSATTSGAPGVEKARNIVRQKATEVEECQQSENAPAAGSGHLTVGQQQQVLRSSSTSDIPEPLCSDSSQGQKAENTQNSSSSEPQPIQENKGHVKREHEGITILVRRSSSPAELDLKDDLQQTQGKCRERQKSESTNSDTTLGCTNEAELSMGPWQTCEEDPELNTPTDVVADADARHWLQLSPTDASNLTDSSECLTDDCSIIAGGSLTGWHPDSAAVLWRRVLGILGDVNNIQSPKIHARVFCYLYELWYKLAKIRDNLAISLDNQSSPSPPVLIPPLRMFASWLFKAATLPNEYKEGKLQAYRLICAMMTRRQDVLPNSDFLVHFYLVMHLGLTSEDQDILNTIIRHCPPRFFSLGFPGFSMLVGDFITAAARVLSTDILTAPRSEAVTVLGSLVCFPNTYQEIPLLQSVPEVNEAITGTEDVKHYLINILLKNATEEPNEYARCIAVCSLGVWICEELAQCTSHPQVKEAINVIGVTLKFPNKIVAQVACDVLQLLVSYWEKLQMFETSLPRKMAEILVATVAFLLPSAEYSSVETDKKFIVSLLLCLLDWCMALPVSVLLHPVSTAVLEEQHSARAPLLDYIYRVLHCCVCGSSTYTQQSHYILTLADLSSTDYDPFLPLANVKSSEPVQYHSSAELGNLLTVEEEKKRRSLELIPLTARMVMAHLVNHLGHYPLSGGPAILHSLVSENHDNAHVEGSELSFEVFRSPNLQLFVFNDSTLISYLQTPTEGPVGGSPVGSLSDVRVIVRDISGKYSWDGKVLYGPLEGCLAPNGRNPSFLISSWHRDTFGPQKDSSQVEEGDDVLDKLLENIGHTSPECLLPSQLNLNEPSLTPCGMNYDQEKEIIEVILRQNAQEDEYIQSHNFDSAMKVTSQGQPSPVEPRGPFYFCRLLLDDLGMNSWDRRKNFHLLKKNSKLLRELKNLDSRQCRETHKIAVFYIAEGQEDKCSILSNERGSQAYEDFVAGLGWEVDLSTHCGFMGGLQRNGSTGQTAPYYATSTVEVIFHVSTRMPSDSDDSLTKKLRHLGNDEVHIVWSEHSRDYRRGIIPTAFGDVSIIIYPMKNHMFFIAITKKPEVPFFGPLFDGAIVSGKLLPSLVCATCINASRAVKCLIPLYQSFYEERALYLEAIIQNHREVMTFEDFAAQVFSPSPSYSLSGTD

What was measured:
[1] = molecular target: T1, κB-Ras1 in the purified trimeric RGα2/RGβ/κB-Ras1 complex (UniProt Q9NYS0); experiment: co-purification; RalGAP complexes expressed in Expi293F cells and purified as complexes (as in ref. 21), then used in the in vitro GAP assay
T1 sequence: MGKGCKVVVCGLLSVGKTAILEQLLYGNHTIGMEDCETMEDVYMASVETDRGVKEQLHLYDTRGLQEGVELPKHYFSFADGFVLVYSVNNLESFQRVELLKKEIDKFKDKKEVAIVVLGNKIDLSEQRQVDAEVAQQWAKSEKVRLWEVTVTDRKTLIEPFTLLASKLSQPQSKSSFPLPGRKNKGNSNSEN

[2] = molecular target: T2, RGβ in the purified RalGAP complexes (UniProt Q86X10); experiment: as above
T2 sequence: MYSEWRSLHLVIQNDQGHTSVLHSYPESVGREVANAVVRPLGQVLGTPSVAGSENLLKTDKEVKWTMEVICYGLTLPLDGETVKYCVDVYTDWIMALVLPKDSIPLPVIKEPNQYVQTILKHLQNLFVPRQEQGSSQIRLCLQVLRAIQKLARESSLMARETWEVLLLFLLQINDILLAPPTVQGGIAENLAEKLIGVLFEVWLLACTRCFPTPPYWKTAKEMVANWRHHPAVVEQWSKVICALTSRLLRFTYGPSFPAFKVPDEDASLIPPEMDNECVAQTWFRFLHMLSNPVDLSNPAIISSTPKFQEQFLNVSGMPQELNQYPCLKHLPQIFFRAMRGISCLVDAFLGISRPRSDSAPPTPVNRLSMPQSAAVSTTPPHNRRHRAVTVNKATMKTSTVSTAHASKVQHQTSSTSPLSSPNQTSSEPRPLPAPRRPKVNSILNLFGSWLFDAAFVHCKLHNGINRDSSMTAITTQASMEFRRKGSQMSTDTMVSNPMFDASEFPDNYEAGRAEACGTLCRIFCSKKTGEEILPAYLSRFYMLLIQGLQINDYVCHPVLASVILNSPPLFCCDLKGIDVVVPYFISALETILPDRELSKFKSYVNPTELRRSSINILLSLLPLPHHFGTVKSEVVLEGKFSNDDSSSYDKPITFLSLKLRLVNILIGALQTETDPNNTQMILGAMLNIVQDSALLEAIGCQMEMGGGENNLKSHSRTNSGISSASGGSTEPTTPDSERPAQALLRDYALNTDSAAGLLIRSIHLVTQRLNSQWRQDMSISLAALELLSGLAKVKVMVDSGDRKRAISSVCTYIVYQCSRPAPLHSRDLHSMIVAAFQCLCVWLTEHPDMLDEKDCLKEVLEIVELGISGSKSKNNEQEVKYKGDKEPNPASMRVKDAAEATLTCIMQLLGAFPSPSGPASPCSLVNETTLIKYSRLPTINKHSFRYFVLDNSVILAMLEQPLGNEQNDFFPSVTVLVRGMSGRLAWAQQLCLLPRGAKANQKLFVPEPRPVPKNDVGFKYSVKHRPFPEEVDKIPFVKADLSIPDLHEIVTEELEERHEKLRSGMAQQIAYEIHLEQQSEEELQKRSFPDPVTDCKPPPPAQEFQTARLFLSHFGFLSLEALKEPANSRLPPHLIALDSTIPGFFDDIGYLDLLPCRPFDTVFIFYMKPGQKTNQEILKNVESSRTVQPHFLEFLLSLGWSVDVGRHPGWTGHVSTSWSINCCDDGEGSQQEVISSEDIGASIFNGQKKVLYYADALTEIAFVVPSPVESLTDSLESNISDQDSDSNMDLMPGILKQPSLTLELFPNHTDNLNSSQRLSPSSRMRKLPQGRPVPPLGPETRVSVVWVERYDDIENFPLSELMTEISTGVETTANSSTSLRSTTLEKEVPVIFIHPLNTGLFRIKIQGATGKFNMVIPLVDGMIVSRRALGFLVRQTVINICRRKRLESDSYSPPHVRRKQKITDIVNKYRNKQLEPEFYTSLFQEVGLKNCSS

κB-Ras1 V47D (pCTAPa) = molecular target: T3, κB-Ras1 V47D (pCTAPa) (UniProt Q9NYS0); experiment: co-IP; HEK 293FT transfected with p3xFLAG-CVM7-RGα2, HA-pKH3-RGβ and pCTAPa-κB-Ras1; lysis in 40 mM Hepes, 120 mM NaCl, 10 mM MgCl2, 0.3% CHAPS, pH 7.4; κB-Ras1 precipitated on Streptavidin Sepharose; immunoblot
T3 sequence: T1 sequence with V47D

κB-Ras1 D41A (pCTAPa) = molecular target: T4, κB-Ras1 D41A (pCTAPa) (UniProt Q9NYS0); experiment: as above
T4 sequence: T1 sequence with D41A

[3] = molecular target: T5, κB-Ras1 WT (pCTAPa-κB-Ras1) (UniProt Q9NYS0); experiment: as above
T5 sequence: T1 sequence

κB-Ras1 S46Y (pCTAPa) = molecular target: T6, κB-Ras1 S46Y (pCTAPa) (UniProt Q9NYS0); experiment: as above
T6 sequence: T1 sequence with S46Y

κB-Ras1 A45Q (pCTAPa) = molecular target: T7, κB-Ras1 A45Q (pCTAPa) (UniProt Q9NYS0); experiment: as above
T7 sequence: T1 sequence with A45Q

κB-Ras1 H58D (pCTAPa) = molecular target: T8, κB-Ras1 H58D (pCTAPa) (UniProt Q9NYS0); experiment: as above
T8 sequence: T1 sequence with H58D

binding [1]: binds
binding [2]: binds
Substance: RGα2 in the purified RalGAP complexes (from UniProt Q2PPJ7 1-1873)

binding (κB-Ras1 V47D (pCTAPa)): no binding
binding (κB-Ras1 D41A (pCTAPa)): no binding
binding [3]: binds
binding (κB-Ras1 S46Y (pCTAPa)): binds
binding (κB-Ras1 A45Q (pCTAPa)): no binding
binding (κB-Ras1 H58D (pCTAPa)): no binding
Substance: RGα2fl/RGβ (RalGAP complex of 3xFLAG-RGα2 and HA-RGβ) (from UniProt Q2PPJ7 1-1873; Q86X10 1-1494)

binding [2]: binds
Substance: RGα2Δloop in the purified RGα2Δloop/RGβ complex (from UniProt Q2PPJ7 1-1873)

binding [3]: no binding
Substance: RGα2Δloop/RGβ (RalGAP complex with RGα2 lacking residues 178–189) (from UniProt Q2PPJ7 1-1873; Q86X10 1-1494)
